Assay results reported in PubChem BioAssay AID485281 (National Center for Advancing Translational Sciences (NCATS), 2010).
Hit rate of the full screen: of about 350,000 compounds, about 260 (0.074%) were called active. Inconclusive results, whose numbers are uncertain, are shown with a selection of clear calls. Calls follow the shape of the dose curve; as a rule, active = well fitted inhibition curve with a large enough effect; inconclusive = small, poorly fitted or top-dose-only effect; inactive = no such curve, though single readings can be large or run the other way. Where the call is inconclusive, the potency comes from a doubtful curve fit.

These compounds were tested against Ferritin light chain (Equus caballus) (UniProt P02791) (assay: qHTS Assay for Identification of Novel General Anesthetics). Details: apoferritin/1-aminoanthracene competitive binding, fluorescence; series mostly up to 77.5 µM.
Method in brief: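 10 uM apoferritin + 50% sat. 1-AMA, PBS; cpd 10 min RT; Ex380/Em535 endpoint; normalized to free probe vs complex; 4-param Hill fit; propofol titration as pos. ctrl.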
Also: nearly all actives have a fitted effect of over 20% in size.
Potency is read from the fitted curve at half-maximal effect; tags tell the direction and shape of the fitted curve.

Sequence of UniProt P02791 (P02791 whole entry, looked up): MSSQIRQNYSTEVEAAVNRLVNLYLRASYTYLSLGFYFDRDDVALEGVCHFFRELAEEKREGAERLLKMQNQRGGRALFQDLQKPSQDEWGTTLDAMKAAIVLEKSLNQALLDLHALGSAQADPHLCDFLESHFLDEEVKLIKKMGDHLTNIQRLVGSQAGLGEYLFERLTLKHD

Row | Structure (SMILES) | Potency
1 | CCN(CC)CCOC(=O)c1ccc(NC(=O)CSc2cc(=O)n(CC)c3ccccc23)cc1 | inconclusive: 2.24 µM [inhibitor, full curve]
2 | CC(=O)c1nnn(-c2nc(N)nc(N(c3ccccc3)c3ccccc3)n2)c1C | inconclusive: 39.8 µM [inhibitor, partial curve]
3 | O=C(CNC(=O)c1ccco1)N=Nc1c(O)n(CCc2ccccc2)c2ccccc12 | inconclusive: 28.2 µM [inhibitor, partial curve]
4 | Cc1cccc(Nc2nc(Cl)ncc2F)c1C | inconclusive: 15.8 µM [inhibitor, partial curve]
5 | C#CCSc1nc(-c2ccccc2)cc(C(F)(F)F)c1C#N | inactive
6 | CN(Cc1cccnc1)C(=O)c1cc(COc2ccc3c(c2)CCCC3)on1 | inconclusive: 25.1 µM [inhibitor, partial curve]
7 | O=C(c1cccs1)N1CCC(c2nc3c(nnn3Cc3cccc(Cl)c3)c(=O)[nH]2)CC1 | inactive
8 | O=C(NCCCN1CCCC1=O)C(=O)NCC1OCCN1S(=O)(=O)c1ccc(Br)cc1 (stereo not given) | inconclusive: 31.6 µM [inhibitor, partial curve]
9 | Cn1cc(C(=O)N/N=C/c2ccc([N+](=O)[O-])cc2)c2ccccc21 | inactive
10 | Cc1cccc(C(=O)NCC(=O)OCC(=O)c2ccc(Cl)s2)c1 | inconclusive: 31.6 µM [inhibitor, partial curve]
11 | O=C(CSc1ncccc1C(=O)O)c1cccc(C(F)(F)F)c1 | inconclusive: 28.2 µM [inhibitor, partial curve]
12 | Cn1nnnc1SCC(=O)N1CCCc2ccccc21 | inactive
13 | CC1CC1c1ccc(/C=C(\C#N)C(=O)Nc2ccccc2Cl)o1 (stereo not given) | inactive
14 | O=C(CN1CCCCCCC1)N/N=C/c1ccc([N+](=O)[O-])o1 | inconclusive: 44.7 µM [inhibitor, single point]
15 | CCOc1ccc(NC(=S)Nc2ccc(C)c([N+](=O)[O-])c2)cc1 | inconclusive: 17.8 µM [inhibitor, partial curve]
16 | CCOC(=O)c1cccc(NC(=O)c2cc(S(=O)(=O)N3CCCC3)cn2C)c1 | inactive
17 | Cc1ccc(C(=O)N2CCCC(N3CCN(c4ccccc4C)CC3)C2)c(=O)[nH]1 (stereo not given) | inactive
18 | O=C(COC(=O)c1cccs1)NCC1CCCCC1 | inconclusive: 50.1 µM [inhibitor, single point]
19 | COc1ccc(-c2onc(C)c2C)cc1S(=O)(=O)Nc1ccc(OC(F)(F)F)cc1 | inactive
20 | Cc1ccccc1-n1sc2cc(F)ccc2c1=O | inactive
21 | CC(=O)c1cc(-c2ccc(F)cc2)n(CC(=O)NC2CCCCCC2)c1C | inconclusive: 28.2 µM [inhibitor, partial curve]
22 | O=C1CC(c2ccco2)CC(O)=C1C=Nc1ccccc1-c1ccccc1 (stereo not given) | inconclusive: 35.5 µM [inhibitor, partial curve]
23 | Cc1ccc(SCc2nc(N)nc(Nc3ccccc3C)n2)c(C)c1 | inactive
24 | O=C(Nc1nc2c(s1)COc1ccccc1-2)c1cccs1 | inconclusive: 50.1 µM [inhibitor, single point]

Row | Structure (SMILES) | Potency
25 | Cc1n(Cc2ccccc2)c2ccccc2[n+]1Cc1ccccc1 | inactive
26 | COc1ccc(N=C2NC(=O)/C(=C\C=C\c3ccco3)S2)cc1 | inconclusive: 15.8 µM [inhibitor, partial curve]
27 | Cc1cccc(OCC(=O)Nc2ccc(N3CCN(C(=O)c4ccco4)CC3)cc2)c1C | inactive
28 | Cc1ccc(-n2c(SCc3nc(-c4ccc(Cl)cc4)no3)nnc2-c2ccncc2)cc1 | inconclusive: 35.5 µM [inhibitor, single point]
29 | Cc1ccc(C)c(NC(=S)NC(NC(=O)Cc2ccccc2)C(Cl)(Cl)Cl)c1 (stereo not given) | inactive
30 | C/C(=N\NC(=S)NCc1ccccc1)c1ccccc1F | inactive
31 | COc1ccc(Cn2c(C(=O)O)c(CNCCc3cccs3)c3ccc(OC)cc32)cc1 | inconclusive: 28.2 µM [inhibitor, partial curve]
32 | CN(C)CCCNC(=O)c1cc(C(=O)Cc2ccc(Cl)cc2)c[nH]1 | inconclusive: 31.6 µM [inhibitor, single point]
33 | Cc1ccccc1NC1=NS(=O)(=O)c2ccccc21 | inactive
34 | COc1ccc(-c2ccc(-c3cc(=O)oc4cc(C)cc(C)c34)cc2)cc1 | inconclusive: 11.2 µM [inhibitor, partial curve]
35 | COc1ccc(/C=C/C(=O)NC(=S)NCCc2ccc(OC)c(OC)c2)cc1 | inconclusive: 31.6 µM [inhibitor, partial curve]
36 | CC(=O)Oc1ccc(N(C(C)=O)S(=O)(=O)c2cccs2)c2ccccc12 | inconclusive: 35.5 µM [inhibitor, partial curve]
37 | COc1ccccc1N1CCN(C(c2ccccn2)c2nnnn2C2CCCCC2)CC1 (stereo not given) | inconclusive: 44.7 µM [inhibitor, partial curve]
38 | COc1ccc(C(=O)/C=C2/C(=O)Nc3ccccc32)c(OC)c1 | inactive
39 | O=[N+]([O-])c1ccc(N/N=C/c2ccc(O)c(O)c2O)c(S(=O)(=O)N2CCOCC2)c1 | inactive
40 | CCOc1ccc(C(c2c(NC(=O)c3ccccc3)sc(C)c2C)N2CCN(CCO)CC2)cc1 (stereo not given) | inactive
41 | Cc1ccsc1/C=N/Nc1ccc(C(=O)O)cc1 | inactive
42 | COC(=O)c1c(C)sc(-c2c(-c3ccc(F)cc3)[nH]c3[nH]c(=O)[nH]c(=O)c23)c1O | inconclusive: 8.91 µM [inhibitor, partial curve]
43 | CC(C)c1ccccc1OCC(=O)Nc1ccccc1C(=O)N1CCOCC1 | inactive
44 | COc1cccc(NC(=O)COC(=O)Cc2ccc(Br)cc2)c1 | inconclusive: 20 µM [inhibitor, partial curve]
45 | Cc1cccc(/C(N)=N/OC(=O)CCc2ccccc2)c1 | inconclusive: 28.2 µM [inhibitor, partial curve]
46 | Cc1cccc(N2C(=O)C3C4C=CC(C4)C3C2=O)c1 (stereo not given) | inconclusive: 6.31 µM [inhibitor, partial curve]
47 | CCC1(c2ccccc2)NC(=O)N(CC(=O)Nc2cccc(C#N)c2)C1=O (stereo not given) | inconclusive: 15.8 µM [inhibitor, partial curve]
48 | Cc1cccc(-c2nnc(SCC(=O)NC3CCCCC3)o2)c1 | inconclusive: 15.8 µM [inhibitor, partial curve]

Row | Structure (SMILES) | Potency
49 | O=S(=O)(c1ccc(NC(=S)N/N=C/c2cccc(Oc3ccccc3)c2)cc1)N1CCOCC1 | inconclusive: 7.94 µM [inhibitor, partial curve]
50 | COc1ccc(OC)c(S(=O)(=O)Nc2ccc(C)c(C)c2)c1 | inconclusive: 31.6 µM [inhibitor, partial curve]
51 | CCN(CC)C(=S)SCC(=O)c1ccccc1 | inconclusive: 11.2 µM [inhibitor, partial curve]
52 | CCOc1ccccc1NC(=O)c1cc2ccc3cccnc3c2[nH]1 | inactive
53 | CCN(Cc1ccccc1)C(=O)c1cc2ccc3cccnc3c2[nH]1 | inconclusive: 12.6 µM [inhibitor, single point]
54 | O=C(Nc1ccc(CN2CCOCC2)cc1)c1ccc(-c2cccc(Cl)c2)o1 | inconclusive: 17.8 µM [inhibitor, partial curve]
55 | COc1ccc(N(Cc2cccs2)C(=O)COc2ccc([N+](=O)[O-])cc2)cc1 | inconclusive: 3.55 µM [inhibitor, full curve]
56 | O=C(COC(=O)c1ccc2c(c1)OCCO2)NCCC1=CCCCC1 | inconclusive: 17.8 µM [inhibitor, partial curve]
57 | Fc1ccccc1CNc1ccc(Cl)cc1 | inconclusive: 6.31 µM [inhibitor, full curve]
58 | CCn1c(COc2cccc(OC)c2)nnc1SCC(=O)Nc1cccc(OC)c1 | inconclusive: 22.4 µM [inhibitor, partial curve]
59 | O=c1cc2oc3cc(O)c(O)cc3c(-c3ccccc3[N+](=O)[O-])c-2cc1O | inactive
60 | COc1ccccc1-c1noc(CCC(=O)Nc2cccc(C)c2)n1 | inconclusive: 35.5 µM [inhibitor, partial curve]
61 | COc1ccc(Nc2ccccc2N)cc1 | inconclusive: 35.5 µM [inhibitor, partial curve]
62 | CCc1ccc(NS(=O)(=O)c2ccc3[nH]cc(C(=O)N4CCCCCC4)c(=O)c3c2)cc1 | inconclusive: 15.8 µM [inhibitor, partial curve]
63 | Cc1ccc(C)c(N2CCN(C(=O)c3cc4ccccc4oc3=O)CC2)c1 | inconclusive: 39.8 µM [inhibitor, partial curve]
64 | COc1ccc(/C=C\C(=O)c2c(O)ccc3c(C)cc(=O)oc23)cc1OC | inconclusive: 25.1 µM [inhibitor, partial curve]
65 | O=C(NC1CCCCC1)c1sc(=S)n2c1[nH]c(=O)c1ccccc12 | inactive
66 | O=C(CN1CCCN(Cc2ccc(F)cc2Cl)C1=O)NC1CCCCCCC1 | inconclusive: 35.5 µM [inhibitor, partial curve]
67 | CC1CCC2C(C)C3C(CC4[C@@H]5CC=C6C[C@@H](O)CC[C@]6(C)C5CC[C@]34C)N2C1 (stereo not given in full) | inactive
68 | Cc1cc(C)c(C)c(OCC(=O)O/N=C(\N)c2ccccn2)c1 | inconclusive: 44.7 µM [inhibitor, partial curve]
69 | CC(C)(C)OC(=O)N[C@@H](Cc1ccccc1)c1nnc(S(=O)(=O)Cc2cccc(F)c2)o1 | inconclusive: 11.2 µM [inhibitor, full curve, poor fit]
70 | CCOC(=O)Cc1ccc(NC(=O)N2CC(C)Oc3ccc(Cl)cc32)cc1 (stereo not given) | inconclusive: 3.55 µM [inhibitor, full curve, poor fit]
